# The supplement of paper PMC4166925
# ± gives the standard deviation of the averaged measurements. In all, about 33,000 sequences were measured (“E-score (dimensionless, -0.5 to 0.5)”: median about -0.046, highest 2% from about 0.36 on). The list shows a part of the results.
# Tested on: T1, SpTbr T-box DNA-binding domain (GST fusion)
# T1 sequence: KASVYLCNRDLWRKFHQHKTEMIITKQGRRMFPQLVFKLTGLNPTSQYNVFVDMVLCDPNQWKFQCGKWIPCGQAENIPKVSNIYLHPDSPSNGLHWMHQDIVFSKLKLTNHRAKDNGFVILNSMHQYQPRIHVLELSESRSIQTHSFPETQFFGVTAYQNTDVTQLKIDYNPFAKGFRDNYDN
# Experiment: PBM E-score of 8-mer (E-score (dimensionless, -0.5 to 0.5)); Tbr is Tbrain of the sea star Patiria miniata (Pm) or the sea urchin Strongylocentrotus purpuratus (Sp); higher = stronger binding preference; most listed sequences are background and not binding sites
# Conditions: the construct has about 5 more residues each side
# How it was run: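 Expression of GST-fused Tbr T-box DNA-binding domains, each holding the full T-box plus roughly five flanking residues, was carried out in BL21 E. coli at 20 °C, with purification by glutathione affinity chromatography. Universal Agilent arrays made double-stranded by primer extension were incubated with the protein at 200 nM in PBS (pH 7.5), then scanned and quantified. All ungapped 8-mers were scored from probe intensities, and each received an enrichment E-score from the Universal PBM Analysis Suite, averaged over duplicate arrays.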
row,Sequence,PBM E-score of 8-mer
1,AAAAATGC,-0.17 ± 0.065
2,AAGCATTG,-0.0285 ± 0.025
3,GAACGGAC,0.108 ± 0.011
4,AGGAGATC,-0.171 ± 0.027
5,AGCCTTAA,-0.231 ± 0.065
6,AAGGGTAC,-0.0379 ± 0.051
7,AACAAGTG,0.298 ± 0.035
8,GTGGAGCA,-0.0556 ± 0.12
9,AATCTTCA,0.0329 ± 0.0011
10,CGACCCAC,0.00361 ± 0.024
11,AGGAAGCC,-0.213 ± 0.13
12,GCTCCGAA,-0.0394 ± 0.01
13,AGTATTCC,-0.0913 ± 0.0088
14,CAGCACTA,-0.222 ± 0.027
15,AAGTATTG,-0.0751 ± 0.015
16,CCCAGTTC,-0.182 ± 0.031
17,GGAGCCGA,0.068 ± 0.06
18,TGTCCACA,0.194 ± 0.038
19,TATTTGCA,-0.0069 ± 0.0097
20,ACACTGAT,0.138 ± 0.017
21,GTGTTTGA,0.2 ± 0.022
22,ACAAGAAA,-0.213 ± 0.068
23,ACCAGGAC,-0.0953 ± 0.096
24,AGGCGAGA,0.373 ± 0.012
25,AGAATGAG,-0.244 ± 0.1

row,Sequence,PBM E-score of 8-mer
1,CGTAGGAC,-0.173 ± 0.15
2,GACACAAA,0.131 ± 0.02
3,CCTTTCTA,-0.051 ± 0.018
4,CGGAATCC,-0.281 ± 0.036
5,CTCGTGCA,-0.01 ± 0.0087
6,AATCCATA,-0.12 ± 0.025
7,CGCGATAC,0.216 ± 0.031
8,AGAATCAC,0.146 ± 0.038
9,CCACGTCG,-0.0397 ± 0.074
10,GCTTACTA,-0.289 ± 0.027
11,ACAACGGG,0.0126 ± 0.012
12,CGACTAGA,-0.189 ± 0.11
13,CCAGGCTA,-0.0877 ± 0.07
14,ACTCACCG,-0.0434 ± 0.074
15,CATTTGAC,0.0519 ± 0.013
16,CCGACGGA,-0.145 ± 0.038
17,GTAGGACA,-0.123 ± 0.1
18,CTTGAGCA,-0.0556 ± 0.08
19,ACGGCAAT,-0.046 ± 0.033
20,CAGGCTCG,0.137 ± 0.005
21,TCACGTGA,0.121 ± 0.017
22,GTCCCAAA,-0.1864 ± 0.0015
23,CTAACTAC,-0.126 ± 0.1
24,GCGACTCA,0.113 ± 0.0099
25,GGAACAAA,-0.243 ± 0.025

row,Sequence,PBM E-score of 8-mer
1,GAAAATTA,-0.0582 ± 0.0082
2,CTAGGACC,-0.189 ± 0.05
3,AGTAGAGA,-0.138 ± 0.032
4,CCCGCGTA,-0.068 ± 0.043
5,TACCGGAA,-0.116 ± 0.02
6,CTCGGTAC,-0.085 ± 0.026
7,CCCGACAA,0.154 ± 0.02
8,GCGCTCAC,0.227 ± 0.024
9,ACAATGGG,-0.135 ± 0.044
10,CGTCTGTA,-0.0863 ± 0.06
11,AGTATAAA,-0.145 ± 0.023
12,GAGCGGGC,0.0434 ± 0.076
13,AGGATGAA,-0.147 ± 0.026
14,ATGGGCAC,-0.234 ± 0.035
15,AAAGCTCA,-0.0105 ± 0.0013
16,AGACAATC,-0.0496 ± 0.029
17,GAAACCCA,-0.0056 ± 0.087
18,CTTAACAA,0.243 ± 0.0056
19,AGTCCCGG,-0.0982 ± 0.0088
20,TGAGACCA,-0.0282 ± 0.077
21,ATCTGTTG,0.0461 ± 0.032
22,AGCTGCGG,-0.169 ± 0.037
23,GCGCTATA,0.0546 ± 0.067
24,CACGTTAA,0.132 ± 0.0036
25,ACAGATCG,0.145 ± 0.023

row,Sequence,PBM E-score of 8-mer
1,CTGCACGC,-0.0619 ± 0.018
2,AAGCCTAG,-0.28 ± 0.055
3,GCTTATAA,-0.245 ± 0.0063
4,ACCGCAGA,-0.255 ± 0.025
5,TCTCGAGA,-0.0187 ± 0.0036
6,AGGTCTAT,-0.337 ± 0.021
7,AGATCAAT,-0.155 ± 0.054
8,CTATATGC,0.0143 ± 0.068
9,CGACGCTA,0.133 ± 0.039
10,AGCCGAGG,0.0655 ± 0.041
11,AATTTGAA,-0.21 ± 0.078
12,GATCTAGC,-0.178 ± 0.0028
13,CCGATAAG,-0.134 ± 0.12
14,ACATGTTA,0.00883 ± 0.016
15,CTAGTATC,-0.102 ± 0.054
16,AACATACT,-0.0527 ± 0.066
17,CATAAGCA,0.0453 ± 0.02
18,TAACACCA,0.43 ± 0.011
19,AGCCTTAG,-0.311 ± 0.059
20,AGGTGTGC,0.445 ± 0.014
21,ACATTATG,-0.0516 ± 0.044
22,GATTGAAA,-0.118 ± 0.062
23,CCCGTGCA,-0.113 ± 0.03
24,CCTCAGAG,0.0663 ± 0.019
25,ACGACAGT,0.148 ± 0.01

row,Sequence,PBM E-score of 8-mer
1,AATACTCA,-0.0624 ± 0.011
2,TACGCGCA,0.0375 ± 0.032
3,AGTCTGGC,-0.252 ± 0.0068
4,CGAACATC,0.0324 ± 0.0025
5,GTCCCAGA,-0.196 ± 0.066
6,CTCACGAC,0.105 ± 0.023
7,CCCAAAAG,-0.137 ± 0.013
8,AAGGCTGG,-0.0878 ± 0.024
9,AGTGGAGA,-0.0675 ± 0.13
10,ATAGTGGC,0.0512 ± 0.057
11,ATAGGGGG,-0.142 ± 0.03
12,AAGGAACG,-0.138 ± 0.027
13,ATCATACG,-0.0455 ± 0.062
14,AGCCGCCG,0.0372 ± 0.077
15,ATACTGAA,-0.174 ± 0.019
16,AACACCTG,0.463 ± 0.0057
17,ATACGAGC,-0.0328 ± 0.004
18,CATACTGG,-0.125 ± 0.081
19,GTTCTGTA,0.00666 ± 0.0032
20,ACTTCAGG,0.111 ± 0.13
21,AGAACATA,0.0118 ± 0.012
22,CAACGCCA,0.106 ± 0.015
23,TTCCCAAA,-0.205 ± 0.086
24,CATGCTGA,-0.00241 ± 0.01
25,ATCCGGCC,-0.219 ± 0.015

row,Sequence,PBM E-score of 8-mer
1,CTTGACAC,0.436 ± 0.0093
2,GCCCTATA,-0.244 ± 0.014
3,TAAAAAGA,-0.118 ± 0.082
4,ACGTGCGC,0.122 ± 0.029
5,ACGACGAC,0.171 ± 0.0032
6,GAACATCA,-0.103 ± 0.008
7,GCTCGTCC,-0.321 ± 0.022
8,ATGTGTAA,0.342 ± 0.0099
9,CAGTGCGC,0.00847 ± 0.051
10,AGGCTATG,-0.349 ± 0.078
11,CGTGATTA,0.179 ± 0.019
12,GAGTTAAC,0.148 ± 0.066
13,CCAGGCGC,0.22 ± 0.04
14,CTTAACGC,0.268 ± 0.028
15,ACCCCAGG,-0.0991 ± 0.002
16,CTGGAACC,-0.212 ± 0.023
17,AACCAGCT,0.104 ± 0.066
18,AGTCAGAT,-0.0982 ± 0.017
19,CGTTGACC,0.0141 ± 0.0079
20,GAAGCATC,-0.125 ± 0.018
21,CCAATGGA,-0.135 ± 0.0076
22,CAGCTGGC,0.0425 ± 0.028
23,GTTGCGTA,0.048 ± 0.029
24,CGAAATAC,0.0213 ± 0.03
25,AAGCTATA,-0.0728 ± 0.05

row,Sequence,PBM E-score of 8-mer
1,AGCAAATA,-0.0692 ± 0.018
2,GGCTCTAA,0.0644 ± 0.035
3,CAAGGGTC,-0.194 ± 0.032
4,CGTAACGC,0.0933 ± 0.014
5,AGGTCAAG,-0.2167 ± 0.00059
6,CCCGCTTA,-0.15 ± 0.095
7,GCAGCTCC,0.0185 ± 0.065
8,CAGCCATG,-0.12 ± 0.027
9,GGTTAGAA,-0.147 ± 0.013
10,TACTAGAA,-0.301 ± 0.035
11,ATCTCGTA,-0.0335 ± 0.027
12,AACGGAGT,0.074 ± 0.025
13,ACGTAAGC,0.0625 ± 0.067
14,CGAGGTGC,0.445 ± 0.0072
15,GCTAGCTA,0.117 ± 0.03
16,ATGGAGAC,-0.173 ± 0.012
17,ATTATATC,-0.136 ± 0.018
18,GAGCCCAA,-0.187 ± 0.032
19,CATGCACC,-0.1 ± 0.018
20,CTCGAGTC,-0.181 ± 0.018
21,GGTATGAA,0.04482 ± 0.00011
22,GGGTTGCA,-0.0388 ± 0.04
